Measurements from PubChem BioAssay AID903 (National Center for Advancing Translational Sciences (NCATS), 2007).
Screen size: about 55,000 compounds; about 340 (0.62%) were called active. The inconclusive results got no clear call from the source; some entries with a clear call stand among them for comparison. Calls come from the whole dose curve; as a rule, active = well fitted cell-killing curve with a large enough effect; inconclusive = small, poorly fitted or top-dose-only effect; inactive = no such curve, though single readings can be large or run the other way. Potencies beside an inconclusive call are fits to weak or partial responses and may not hold up.
Potency is the fitted concentration of half-maximal effect; tags give direction and shape of the fitted curve.

Assay: qHTS Screen for Compounds that Selectively Target Cancer Cells with p53 Mutations: Cytotoxicity of p53 Null Cells at the Permissive Temperature; note: nearly all actives have a fitted effect of over 55% in size
Details: H1299-neo p53 null cells, ATP luminescence, 24 h, 32C; series mostly up to 46.1 µM
In short: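 H1299-neo (p53-null) cells, 600/well, were pre-incubated overnight at 37C, then exposed to compounds at up to 46 uM for 24 hr at 32C. Viability was measured as ATP content by luminescence, and AC50 values came from Hill fits.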
With Nc1ccc2nc(-c3ccccn3)[nH]c2c1 the Potency was inconclusive: 12.6 µM [cytotoxic, partial curve]. For CCn1c(CC2C(=O)N(C)c3ccc(Br)cc32)nc2ccccc2c1=O (configuration not stated), the Potency was “inactive”. With CCC1CN(C(=O)N2CCC(C(=O)N3CCN(c4cc(C)ccc4C)CC3)CC2)c2ccccc2O1 (configuration not stated) the Potency was inconclusive: 12.6 µM [cytotoxic, partial curve]. For COc1ccc(-c2cc3ccc(O)c(CN4CCCC4)c3oc2=O)cc1OC, the Potency was inconclusive: 12.6 µM [cytotoxic, partial curve]. For COc1ccc(-c2noc(CSc3nc4ccccc4[nH]3)n2)cc1, the Potency was “inactive”. For CCOc1ccc(NC(=O)CSc2oc(-c3ccc(C)cc3)nc2S(=O)(=O)c2ccc(C)cc2)cc1, the Potency was active: 12.6 µM. With COc1ccc(CCNc2ncnc3onc(C)c23)c(OC)c1 the Potency was “inactive”. For CCOc1ccc(C(=O)Nc2ccc3c(c2)OCCO3)cc1Br, the Potency was inconclusive: 10 µM [cytotoxic, partial curve]. In the case of CCc1ccc(S(=O)(=O)c2nnn3c2nc(NCc2ccccc2)c2cc(Cl)ccc23)cc1, the Potency is reported as inconclusive: 0.02 µM [cytotoxic, full curve, poor fit]. With COc1ccccc1C(=O)/C=C/c1ccc(N2CCCCC2)c([N+](=O)[O-])c1 the Potency was inconclusive: 12.6 µM [cytotoxic, partial curve, poor fit]. In the case of COc1ccc(Cl)cc1NC(=O)CCCS(=O)(=O)c1nc(-c2ccc(OC)c(OC)c2)cc(C(F)(F)F)n1, the Potency is reported as inconclusive: 31.6 µM [cytotoxic, single point]. In the case of Cc1cccc(NC2=C(NC(=O)c3ccccc3)C(=O)c3ccccc3C2=O)c1, the Potency is reported as inconclusive: 11.2 µM [cytotoxic, partial curve]. In the case of CCc1ccccc1N1C(=O)N(C)c2ccccc2S1(=O)=O, the Potency is reported as inconclusive: 5.62 µM [cytotoxic, single point]. With Cc1ccc(S(=O)(=O)N(CC(=O)Nc2c(C)cccc2C)c2cccc(Cl)c2)cc1 the Potency was “inactive”. With COc1ccc(-c2cn3c(n2)sc2cc(C(=O)N4CCCCC4)ccc23)cc1 the Potency was “inactive”. For Fc1ccc(N2CCN(c3ncnc4c3nc3n4CCCC3)CC2)cc1, the Potency was inconclusive: 3.98 µM [cytotoxic, single point]. In the case of Fc1ccccc1Nc1ncnc2c1nc1n2CCCCC1, the Potency is reported as inconclusive: 17.8 µM [cytotoxic, partial curve, poor fit]. In the case of CCCCNC(=O)CC1N=C2c3ccccc3N=C(SCC(=O)NCc3ccccc3Cl)N2C1=O (configuration not stated), the Potency is reported as inconclusive: 35.5 µM [cytotoxic, single point]. For Clc1ccc(-c2nnn3c2nc(NCc2ccc4c(c2)OCO4)c2ccccc23)cc1, the Potency was “inactive”. In the case of CCOC(=O)N1CCc2c(sc3c2c(=O)n(-c2ccc(F)cc2)c(=O)n3CC(=O)c2ccccc2)C1, the Potency is reported as inconclusive: 2.82 µM [cytotoxic, partial curve]. With Cn1c(=O)n(C)c2cc(NS(=O)(=O)c3ccc(C(C)(C)C)cc3)c(NCc3ccccc3)cc21 the Potency was inconclusive: 17.8 µM [cytotoxic, partial curve]. With CCOC(=O)c1ccc(NC(=O)c2csnn2)cc1 the Potency was inconclusive: 10 µM [cytotoxic, partial curve]. For Fc1ccc(Cc2cn3cc(-c4ccccc4)nc3s2)cc1, the Potency was active: 4.47 µM. In the case of Cc1ccc(/C=N/NC(=O)C2=NNC(c3ccccc3)(c3ccccc3)C2)c(O)c1, the Potency is reported as inconclusive: 3.55 µM [cytotoxic, single point]. For Cc1ccc(N(CC(=O)Nc2ccc(C)c(F)c2)S(=O)(=O)c2c(C)n[nH]c2C)cc1, the Potency was “inactive”. With COc1cccc(CNC(=O)C2CCC(CNS(=O)(=O)c3ccc(Br)s3)CC2)c1 (configuration not stated) the Potency was “inactive”. With Cc1ccc2[nH]c(CSc3nnc(COc4ccccc4C)n3C)cc(=O)c2c1 the Potency was “inactive”. In the case of CCCCn1cc(S(=O)(=O)c2ccc(F)cc2)c(=O)c2ccccc21, the Potency is reported as inconclusive: 6.31 µM [cytotoxic, single point]. In the case of COc1ccc(Cn2c(SCC(N)=O)nc3c(sc4ccccc43)c2=O)cc1, the Potency is reported as “inactive”. With Fc1cc(Br)ccc1NC(=S)Nc1ccccc1 the Potency was inconclusive: 10 µM [cytotoxic, partial curve, poor fit]. With Cc1nn2c(=O)cc(COC(=O)c3cccc(NC(=O)c4ccc(C(C)(C)C)cc4)c3)nc2s1 the Potency was active: 3.16 µM. For C=CCn1c(C)cc(C(=O)COC(=O)[C@@H](NC(=O)c2ccccc2Cl)C(C)C)c1C, the Potency was active: 11.2 µM. In the case of COc1cccc(CNC(=O)c2ccc3c(=O)n4nc(Nc5ccccc5)sc4nc3c2)c1, the Potency is reported as inconclusive: 5.01 µM [cytotoxic, full curve]. With C=CCOc1ccc2c(OC)c3ccoc3nc2c1OC the Potency was inconclusive: 11.2 µM [cytotoxic, single point]. With COc1ccc(NC(=O)c2ccc3nccnc3c2)cc1 the Potency was inconclusive: 11.2 µM [cytotoxic, partial curve]. In the case of CC(C)C1C(=O)Nc2ccc(S(=O)(=O)NCCc3ccc(Cl)cc3)cc21 (configuration not stated), the Potency is reported as “inactive”. In the case of O=C(NCCN1CCN(c2cccc(Cl)c2)CC1)Nc1ccccc1C(F)(F)F, the Potency is reported as “inactive”. With CCN(CC)CCCNC(=O)CCCn1ncn2c(cc3occc32)c1=O the Potency was inconclusive: 0.0028 µM [cytotoxic, full curve, poor fit]. In the case of Cc1ccc(NC(=O)Cn2c(=O)oc3cc(S(=O)(=O)N4CCCCC4)ccc32)c(Cl)c1, the Potency is reported as “inactive”. In the case of CC1CN(C(=O)CCC(=O)Nc2cc(F)ccc2F)c2ccccc2S1 (configuration not stated), the Potency is reported as “inactive”. For CC(=O)c1ccc(NS(=O)(=O)c2ccc(-c3cnc(C4CC4)o3)cc2)cc1, the Potency was inconclusive: 0.0079 µM [cytotoxic, partial curve]. For CCc1nn2c(=O)cc(COC(=O)c3ccc(NC(=O)COc4ccc(C)cc4)cc3)nc2s1, the Potency was inconclusive: 5.62 µM [cytotoxic, single point].
